# Data: the supplement of paper PMC8728848
# The other results are listed elsewhere or left out.
# Tests used:
# Assay in all cases: glycan array binding signal (z-score within array); higher = stronger binding
# Settings in all cases: glycan notation: IUPAC condensed, linker removed; mutation: G182A
# [1] = target: Fuc(a1-2)[Gal(a1-3)]Gal
# Procedure, shortened: (§1)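 From the Consortium for Functional Glycomics database, 3228 arrays were curated, keeping only those whose protein sequence was available. Binding is given as a within-array Z-score averaged across arrays sharing a protein sequence and across linkers. Negative Z-scores can be read as non-binding.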
# [2] = target: Fuc(a1-2)[Gal(a1-3)]Gal(b1-3)GlcNAc
# Procedure, shortened: as §1
# [3] = target: Fuc(a1-2)[Gal(a1-3)]Gal(b1-3)GlcNAc(b1-2)Man(a1-3)[Fuc(a1-2)[Gal(a1-3)]Gal(b1-3)GlcNAc(b1-2)Man(a1-6)]Man(b1-4)GlcNAc(b1-4)GlcNAc
# Procedure, shortened: as §1
# [4] = target: Fuc(a1-2)[Gal(a1-3)]Gal(b1-4)Glc
# Procedure, shortened: as §1
# [5] = target: Fuc(a1-2)[Gal(a1-3)]Gal(b1-4)GlcNAc
# Procedure, shortened: as §1
# [6] = target: Fuc(a1-2)[Gal(a1-3)]Gal(b1-4)GlcNAc(b1-2)Man(a1-3)[Fuc(a1-2)[Gal(a1-3)]Gal(b1-4)GlcNAc(b1-2)Man(a1-6)]Man(b1-4)GlcNAc(b1-4)GlcNAc
# Procedure, shortened: as §1
# [7] = target: Fuc(a1-2)[Gal(a1-3)]Gal(b1-4)[Fuc(a1-3)]GlcNAc
# Procedure, shortened: as §1
# [8] = target: Fuc(a1-2)[Gal(a1-4)]Gal(b1-4)GlcNAc
# Procedure, shortened: as §1
# [9] = target: Fuc(a1-2)[GalNAc(a1-3)]Gal
# Procedure, shortened: as §1
# [10] = target: Fuc(a1-2)[GalNAc(a1-3)]Gal(b1-3)GalNAc(a1-3)[Fuc(a1-2)]Gal(b1-4)GlcNAc
# Procedure, shortened: as §1
# [11] = target: Fuc(a1-2)[GalNAc(a1-3)]Gal(b1-3)GlcNAc
# Procedure, shortened: as §1
# [12] = target: Fuc(a1-2)[GalNAc(a1-3)]Gal(b1-3)GlcNAc(b1-2)Man(a1-3)[Fuc(a1-2)[GalNAc(a1-3)]Gal(b1-3)GlcNAc(b1-2)Man(a1-6)]Man(b1-4)GlcNAc(b1-4)GlcNAc
# Procedure, shortened: as §1
# [13] = target: Fuc(a1-2)[GalNAc(a1-3)]Gal(b1-4)Glc
# Procedure, shortened: as §1
# [14] = target: Fuc(a1-2)[GalNAc(a1-3)]Gal(b1-4)GlcNAc
# Procedure, shortened: as §1
# [15] = target: Fuc(a1-2)[GalNAc(a1-3)]Gal(b1-4)GlcNAc(b1-2)Man(a1-3)[Fuc(a1-2)[GalNAc(a1-3)]Gal(b1-4)GlcNAc(b1-2)Man(a1-6)]Man(b1-4)GlcNAc(b1-4)GlcNAc
# Procedure, shortened: as §1
# [16] = target: Fuc(a1-2)[GalNAc(a1-3)]Gal(b1-4)GlcNAc(b1-3)Gal(b1-4)GlcNAc
# Procedure, shortened: as §1
# [17] = target: Fuc(a1-2)[GalNAc(a1-3)]Gal(b1-4)GlcNAc(b1-3)Gal(b1-4)GlcNAc(b1-3)Gal(b1-4)GlcNAc
# Procedure, shortened: as §1
# [18] = target: Fuc(a1-2)[GalNAc(a1-3)]Gal(b1-4)[Fuc(a1-3)]GlcNAc
# Procedure, shortened: as §1
# [19] = target: Fuc(a1-2)[GalNAc(a1-4)]Gal(b1-4)GlcNAc
# Procedure, shortened: as §1
# [20] = target: Fuc(a1-2)[GalNAc(b1-3)]Gal
# Procedure, shortened: as §1
# [21] = target: Fuc(a1-3)GlcNAc
# Procedure, shortened: as §1
# [22] = target: Fuc(a1-3)[Gal(b1-4)]Glc6S
# Procedure, shortened: as §1
# [23] = target: Fuc(a1-3)[Gal(b1-4)]GlcNAc
# Procedure, shortened: as §1
# [24] = target: Fuc(a1-3)[Gal(b1-4)]GlcNAc(b1-2)Man(a1-3)[Fuc(a1-3)[Gal(b1-4)]GlcNAc(b1-2)Man(a1-6)]Man(b1-4)GlcNAc(b1-4)GlcNAc
# Procedure, shortened: as §1
# [25] = target: Fuc(a1-3)[Gal(b1-4)]GlcNAc(b1-3)Gal(b1-3)[Fuc(a1-4)]GlcNAc
# Procedure, shortened: as §1
# [26] = target: Fuc(a1-3)[Gal(b1-4)]GlcNAc(b1-3)GalNAc
# Procedure, shortened: as §1
# [27] = target: Fuc(a1-3)[Gal(b1-4)]GlcNAc(b1-4)Gal(b1-4)[Fuc(a1-3)]GlcNAc
# Procedure, shortened: as §1
# [28] = target: Fuc(a1-3)[Gal(b1-4)]GlcNAc(b1-4)Gal(b1-4)[Fuc(a1-3)]GlcNAc(b1-4)Gal(b1-4)[Fuc(a1-3)]GlcNAc
# Procedure, shortened: as §1
# [29] = target: Fuc(a1-3)[Gal(b1-4)]GlcNAc(b1-6)[Gal(b1-3)GlcNAc(b1-3)]Gal(b1-4)Glc
# Procedure, shortened: as §1
# [30] = target: Fuc(a1-3)[Gal(b1-4)]GlcNAc6S
# Procedure, shortened: as §1
# [31] = target: Fuc(a1-3)[Gal3S(b1-4)]GlcNAc
# Procedure, shortened: as §1
# [32] = target: Fuc(a1-3)[Gal3S(b1-4)]GlcNAc6S
# Procedure, shortened: as §1
# [33] = target: Fuc(a1-3)[GalNAc(b1-4)]GlcNAc
# Procedure, shortened: as §1
# [34] = target: Fuc(a1-4)GlcNAc
# Procedure, shortened: as §1
# [35] = target: Fuc(b1-3)GlcNAc
# Procedure, shortened: as §1
# [36] = target: Gal(a1-2)Gal
# Procedure, shortened: as §1
# [37] = target: Gal(a1-3)Gal
# Procedure, shortened: as §1
# [38] = target: Gal(a1-3)Gal(b1-3)GlcNAc
# Procedure, shortened: as §1
# [39] = target: Gal(a1-3)Gal(b1-3)GlcNAc(b1-2)Man(a1-3)[Gal(a1-3)Gal(b1-3)GlcNAc(b1-2)Man(a1-6)]Man(b1-4)GlcNAc(b1-4)GlcNAc
# Procedure, shortened: as §1
# [40] = target: Gal(a1-3)Gal(b1-3)[Fuc(a1-4)]GlcNAc(b1-2)Man(a1-3)[Gal(a1-3)Gal(b1-3)[Fuc(a1-4)]GlcNAc(b1-2)Man(a1-6)]Man(b1-4)GlcNAc(b1-4)GlcNAc
# Procedure, shortened: as §1
# [41] = target: Gal(a1-3)Gal(b1-4)Glc
# Procedure, shortened: as §1
# [42] = target: Gal(a1-3)Gal(b1-4)GlcNAc
# Procedure, shortened: as §1
# [43] = target: Gal(a1-3)Gal(b1-4)GlcNAc(b1-3)GalNAc
# Procedure, shortened: as §1
# [44] = target: Gal(a1-3)Gal(b1-4)[Fuc(a1-3)]GlcNAc
# Procedure, shortened: as §1
# [45] = target: Gal(a1-3)Gal(b1-4)[Fuc(a1-3)]GlcNAc(b1-2)Man(a1-3)[Gal(a1-3)Gal(b1-4)[Fuc(a1-3)]GlcNAc(b1-2)Man(a1-6)]Man(b1-4)GlcNAc(b1-4)GlcNAc
# Procedure, shortened: as §1
binder,measurement,setting,value
"Gal 3 (Homo sapiens), P17931 (protein) MADNFSLHDALSGSGNPNPQGWPGAWGNQPAGAGGYPGASYPGAYPGQAPPGAYPGQAPPGAYHGAPGAYPGAPAPGVYPGPPSGPGAYPSSGQPSAPGAYPATGPYGAPAGPLIVPYNLPLPGGVVPRMLITILGTVKPNANILDFQRGNDVAFHFNPRFNENNRRVIVCNTKLDNNWAREERQSVFPFESGKPFKIQVLVEPDHFKVAVNDAHLLQYNHRVKKLNEISKLGISGDIDLTSASYTMI",glycan array binding signal (z-score),[1],-0.187
same,glycan array binding signal (z-score),[2],-0.036
same,glycan array binding signal (z-score),[3],0.63
same,glycan array binding signal (z-score),[4],-0.156
same,glycan array binding signal (z-score),[5],1.68
same,glycan array binding signal (z-score),[6],9.17
same,glycan array binding signal (z-score),[7],-0.159
same,glycan array binding signal (z-score),[8],-0.192
same,glycan array binding signal (z-score),[9],-0.182
same,glycan array binding signal (z-score),[10],-0.189
same,glycan array binding signal (z-score),[11],-0.174
same,glycan array binding signal (z-score),[12],-0.162
same,glycan array binding signal (z-score),[13],-0.182
same,glycan array binding signal (z-score),[14],0.028
same,glycan array binding signal (z-score),[15],5.25
same,glycan array binding signal (z-score),[16],2.87
same,glycan array binding signal (z-score),[17],6.29
same,glycan array binding signal (z-score),[18],-0.178
same,glycan array binding signal (z-score),[19],-0.169
same,glycan array binding signal (z-score),[20],-0.155
same,glycan array binding signal (z-score),[21],-0.173
same,glycan array binding signal (z-score),[22],-0.19
same,glycan array binding signal (z-score),[23],-0.185
same,glycan array binding signal (z-score),[24],-0.191
same,glycan array binding signal (z-score),[25],-0.188
same,glycan array binding signal (z-score),[26],-0.146
same,glycan array binding signal (z-score),[27],-0.151
same,glycan array binding signal (z-score),[28],-0.196
same,glycan array binding signal (z-score),[29],-0.187
same,glycan array binding signal (z-score),[30],-0.188
same,glycan array binding signal (z-score),[31],-0.185
same,glycan array binding signal (z-score),[32],-0.145
same,glycan array binding signal (z-score),[33],-0.19
same,glycan array binding signal (z-score),[34],-0.194
same,glycan array binding signal (z-score),[35],-0.157
same,glycan array binding signal (z-score),[36],-0.179
same,glycan array binding signal (z-score),[37],-0.179
same,glycan array binding signal (z-score),[38],-0.185
same,glycan array binding signal (z-score),[39],-0.176
same,glycan array binding signal (z-score),[40],-0.186
same,glycan array binding signal (z-score),[41],-0.193
same,glycan array binding signal (z-score),[42],-0.166
same,glycan array binding signal (z-score),[43],-0.176
same,glycan array binding signal (z-score),[44],-0.194
same,glycan array binding signal (z-score),[45],-0.187
